Article PMC4336329 (PLoS ONE, 2015)
The whole screen tested about 310,000 compounds, of which about 2,200 (0.71%) showed an effect of 50% or more. Effects have a minus sign here. Some of the results follow.

Target: human ether-à-go-go-related gene (hERG) potassium channel (human, UniProt Q12809)
Experiment: primary screen, population patch clamp on CHO cells stably expressing hERG
Procedure: Briefly, Chinese hamster ovary (CHO) cells stably expressing the hERG channel were dislodged from tissue culture flasks and dispensed into PPC plates. […] During the recording, background leak currents were estimated by a 100 ms step to -80 mV from an initial holding potential of -70 mV and subtracted from the subsequent current measurement. The campaign was conducted in two phases using slight differences in recording protocol. In the first phase, the initial voltage pulse used a 100 ms step to -30 mV from a holding potential of -70 mV, a 2 s conditioning step to +25 mV, and a 2 s test step to -30 mV. During the second phase of the screen, the potential during the conditioning step was raised to +45 mV. In both phases of the campaign, a secondary voltage pulse was applied using the same parameters as the second phase initial pulse. The initial and secondary pulses were applied in the absence of compound, and upon application of 1 μM and 10 μM test concentrations. Small molecule effects on hERG current density were quantified by […].

Sequence of human ether-à-go-go-related gene (hERG) potassium channel (Q12809 whole entry, looked up): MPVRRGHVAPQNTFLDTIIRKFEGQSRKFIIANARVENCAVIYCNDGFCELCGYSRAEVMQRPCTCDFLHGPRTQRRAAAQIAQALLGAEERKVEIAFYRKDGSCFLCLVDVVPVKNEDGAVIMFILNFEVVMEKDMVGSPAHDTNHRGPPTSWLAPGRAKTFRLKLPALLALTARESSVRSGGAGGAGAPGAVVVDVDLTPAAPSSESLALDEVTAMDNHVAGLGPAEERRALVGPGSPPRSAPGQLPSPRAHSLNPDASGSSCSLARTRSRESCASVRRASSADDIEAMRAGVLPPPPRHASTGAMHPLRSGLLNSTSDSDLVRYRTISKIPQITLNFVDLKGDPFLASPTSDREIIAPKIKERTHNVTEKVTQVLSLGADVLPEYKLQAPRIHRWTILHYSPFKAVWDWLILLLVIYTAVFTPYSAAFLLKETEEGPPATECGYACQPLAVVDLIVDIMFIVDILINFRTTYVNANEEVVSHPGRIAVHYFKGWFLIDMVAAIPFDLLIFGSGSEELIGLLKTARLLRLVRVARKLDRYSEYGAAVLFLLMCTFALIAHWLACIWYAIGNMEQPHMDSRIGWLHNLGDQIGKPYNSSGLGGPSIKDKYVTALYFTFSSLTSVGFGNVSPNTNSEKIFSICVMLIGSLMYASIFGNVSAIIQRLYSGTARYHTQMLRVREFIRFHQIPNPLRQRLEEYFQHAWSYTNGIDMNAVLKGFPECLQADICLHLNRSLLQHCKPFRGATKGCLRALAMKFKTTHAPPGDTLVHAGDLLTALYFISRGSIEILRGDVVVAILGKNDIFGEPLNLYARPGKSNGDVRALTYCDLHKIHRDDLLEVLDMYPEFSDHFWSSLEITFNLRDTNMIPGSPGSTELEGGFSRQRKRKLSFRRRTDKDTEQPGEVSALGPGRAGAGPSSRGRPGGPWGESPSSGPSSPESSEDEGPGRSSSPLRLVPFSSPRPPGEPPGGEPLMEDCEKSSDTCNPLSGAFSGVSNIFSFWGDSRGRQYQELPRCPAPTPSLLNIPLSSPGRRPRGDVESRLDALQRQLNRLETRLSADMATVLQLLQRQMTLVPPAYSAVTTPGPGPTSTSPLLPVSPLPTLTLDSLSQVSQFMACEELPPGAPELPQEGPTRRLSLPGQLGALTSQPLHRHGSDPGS

| SMILES | hERG current change (%, negative = inhibition) at 1uM |
| --- | --- |
| CCOC(=O)C1CCN(C(=O)c2cc(CN3C(=O)c4ccccc4C3=O)ccc2OCC)CC1 | -5.68% |
| NC(=O)c1sc2nc3c(cc2c1N)CCCCCC3 | 12.9% |
| O=C(Nc1nnc(C2CC2)s1)C1Cc2ccccc2CN1S(=O)(=O)c1ccccc1F (stereo not drawn) | 7.7% |
| Br.O=C(O)c1ccc(Nc2nc(-c3ccccc3)cs2)cc1 | 5.19% |
| NC(=O)C1CCN(C(=O)COc2ccc(Nc3ccccc3)cc2)CC1 | 8.78% |
| O=C(N/N=C/c1c[nH]c2ccccc12)c1ccc(Cl)cc1 | 8.54% |
| Cc1ccc(Cn2ncc3c(NCCCN4CCOCC4)ncnc32)cc1 | 15.3% |
| Cc1cc(C)c[n+](C(C)C(=O)c2ccc(-c3ccccc3)cc2)c1.[Br-] (stereo not drawn) | 11.8% |
| COC(=O)CN1C(=O)N/C(=C/c2ccc(C)o2)C1=O | -0.312% |
| Cc1ccc(-n2[nH]c(C)c(/C=C3/C=Nc4ccccc43)c2=O)cc1C | -0.892% |
| CC(C)(OC(=O)c1ccc(F)cc1)c1cc2ccccc2c(=O)o1 | 11.6% |
| CCOc1ccccc1N(C(=O)CNS(=O)(=O)c1ccccc1)C(CC)C(=O)NCc1ccco1 (stereo not drawn) | 8.59% |
| Cc1[nH]n(-c2ccccc2)c(=O)c1N=Nc1ccc(Cl)cc1 | 18.5% |
| CC12COC3(C(=O)NCCc4ccccc4)CC1CCC32C (stereo not drawn) | 2.31% |
| CCOCCCn1c(=S)[nH]c2cc(C(=O)NCc3ccc(F)cc3)ccc2c1=O | 10.7% |
| CCOc1ccc(NC(=O)C(Cc2ccccc2)NC(=O)C2CCCCC2)cc1 (stereo not drawn) | 12.5% |
| CCOC(=O)c1cnn(Cc2ccccc2Cl)c1N | 5.95% |
| C#CCOCCOCCOCCNc1nc(N2CCN(C(=O)[C@H](CCCCN)n3cc([C@@H](N)C(C)CC)nn3)CC2)nc(N2CCN(C(=O)[C@H](CCCCN)n3cc([C@@H](N)CC(C)C)nn3)CC2)n1.Cl (stereo partly drawn) | 5.01% |
| COc1ccc(NC(=O)C2C3CCC4C(CCC32)C4(Cl)Cl)cc1 (stereo not drawn) | 11.8% |
| O=C(CN1CCN(Cc2ccccc2)CC1)NNC(=O)c1ccc(Cl)cc1 | 1.67% |
| O=C(Nc1ccc(Cl)cc1Cl)c1cccc(N2C(=O)C=CC2=O)c1 | 6.23% |
| Cc1onc(-c2ccccc2)c1C(=O)Nc1ccc(S(=O)(=O)NC2=NCCCCC2)cc1 | 15.6% |

| SMILES | hERG current change (%, negative = inhibition) at 1uM |
| --- | --- |
| Cc1ccc2c(CN3CCC(C)CC3)cc(=O)oc2c1C | 7.01% |
| O=C(NC(=O)c1ccccc1F)OCc1ccc(Cl)cc1Cl | 3.26% |
| O=[N+]([O-])c1cc([N+](=O)[O-])c(Oc2c(Cl)cccc2Cl)cc1NN1CCCCC1 | 14% |
| CCC(=O)N1C(C(=O)O)CSC1c1ccc(OC)cc1 (stereo not drawn) | 4.09% |
| CCOc1ccc(Cn2c(=O)oc3ccccc32)cc1 | 16.4% |
| O=C(/C=C/c1ccc([N+](=O)[O-])cc1)NCCSCc1ccco1 | -14.9% |
| Cc1ccccc1OCC(=O)NCC(=O)OCc1ccc(Br)cc1 | 13.1% |
| S=C(c1ccccc1)N1CCN(C(=S)c2ccccc2)CC1 | 9.72% |
| c1ccc(-c2ccc(C3=Nn4c(nnc4-c4cc(-c5ccccc5)n[nH]4)SC3)cc2)cc1 | -2.16% |
| CC(C)(C)C(=O)NC(=S)NNC(=O)c1ccc(-c2ccccc2)cc1 | 9.14% |
| O=C(Cc1ccc(Cl)c(Cl)c1)Nc1ccccc1N1CCCC1 | 15.2% |
| O=C(/C=C/c1cccc([N+](=O)[O-])c1)NCCN1C(=O)S/C(=C\c2ccc(F)cc2)C1=O | 13.2% |
| O=C(COc1ccc(Cl)cc1)Nc1ccc2oc(-c3ccncc3)nc2c1 | 10.8% |
| COc1ccc(CC(=O)NCCC(C)C)cc1S(=O)(=O)N1CCOCC1 | 7.35% |
| CCCNC(=O)c1onc(CSc2cccc(OC)c2)c1C(=O)NCCC | 6.5% |
| COc1ccc(S(=O)(=O)NCCSc2ccc(Cl)cc2)cc1OC | 1.24% |
| CCN(Cc1ccccc1)C(=O)c1cccnc1 | 12.6% |
| COc1ccc(NC(=O)CC(C)c2ccccc2)cc1S(=O)(=O)N1CCOCC1 (stereo not drawn) | 9.03% |
| CC(=O)NC1C(=O)N(CCN2CCOCC2)c2ccc(F)cc21.Cl (stereo not drawn) | 11.2% |
| C=CCN(CC=C)S(=O)(=O)c1ccc(NC(=O)COc2ccccc2OC)cc1 | -1.1% |
| CC1(c2cccc(Br)c2)NC(=O)NC1=O (stereo not drawn) | 14.3% |
| CCn1ncc(C(=O)Nc2ccc(S(=O)(=O)N3CCCC3)cc2)c1C | 10.4% |

| SMILES | hERG current change (%, negative = inhibition) at 1uM |
| --- | --- |
| O=C(NNC(=S)NC(=O)c1cccc([N+](=O)[O-])c1)c1ccc(Br)cc1 | 11.1% |
| O=C(NCCCN1CCOCC1)C(=O)N/N=C/c1ccccc1O | 10.6% |
| COc1ccc(CCN(C)CCC(=O)Nc2c(C)cc(C)cc2C)cc1OC | -25.7% |
| CCn1c(N2CCC(Cc3ccccc3)CC2)nc2c1c(=O)[nH]c(=O)n2C | 8.52% |
| CCCN(CCC)CCN1C(=O)C2C(C(=O)Nc3cccc(SC)c3)C3C=CC2(O3)C1C(=O)NC1CCCCC1 (stereo not drawn) | -13.7% |
| CCOC(=O)c1ccc(CN2C(=O)c3ccccc3S2(=O)=O)cc1 | 10.5% |
| COc1ccc(-n2c(SCC(=O)Nc3ccc(C(=O)O)cc3)nnc2-c2ccccc2)cc1OC | 4.91% |
| CN1CCN(S(=O)(=O)c2ccc(Br)s2)CC1 | -4.57% |
| COc1ccc2cc(C(=O)N3CCN(C)CC3)[nH]c2c1 | 9.25% |
| COc1ccc(CNC(C)(C)C)cc1Cl.Cl | -1.46% |
| O=S(=O)(Cc1ccccc1)N1CCCC(c2nc(-c3ccc(F)cc3)no2)C1 (stereo not drawn) | 7.37% |
| COc1ccc(OC)c(C2CC(=O)N3CN(c4cccc(Cl)c4)CSC3=C2C#N)c1 (stereo not drawn) | 17.9% |
| CC(c1ccccc1F)n1cc(C(=O)NCCCn2ccnc2)nn1 (stereo not drawn) | 12.9% |
| O=C(O)c1ccccc1N/C=C\[N+](=O)[O-] | 20% |
| O=C(NCCc1ccccc1)C1CCN(c2nc3ccccc3o2)CC1 | -6.95% |
| CC(=O)Nc1ccc(SC[C@H](c2ccccc2)N2CCN(CCc3ccccc3)CCC2=O)cc1 | -56% |
| O=C1CCC(=O)N1OCCOc1ccccc1 | 1.37% |
| Cc1ccc(C(=O)C(=S)N2CCOCC2)cc1 | 2.55% |
| O=C(NCCO)c1ccc(-c2nnc(N3CCOCC3)c3ccccc23)cc1 | 7.33% |
| Cc1ccc(S[C@@H](CCN2CC[C@H](NC(=O)OCc3ccccc3)CCC2=O)c2ccccc2)cc1 | -2.91% |
| CCn1cc(C(=O)N[C@@H](CCSC)C(=O)NCCCn2ccnc2)c(=O)c2cc3c(cc21)OCO3 | 16.1% |
| Cc1ccc(S(C)(=O)=N/C=C2\C(=O)c3sccc3N(C)S2(=O)=O)cc1 (stereo not drawn) | 5.76% |

| SMILES | hERG current change (%, negative = inhibition) at 1uM |
| --- | --- |
| O=C(Cn1ccc([N+](=O)[O-])n1)NCc1ccco1 | 13% |
| Nc1cc(=O)[nH]c(N)n1 | 11.1% |
| CCCOc1ccc(Cc2c(Cl)nc(SC)nc2N(C)C)cc1 | 12.8% |
| COc1ccc(Cn2nnc3c(=O)[nH]c(C4CCCN(C(=O)c5ccccc5)C4)nc32)cc1 (stereo not drawn) | 9.19% |
| Cc1cccc(C)c1NC(=O)CN1C(=O)C2CC=CCC2C1=O (stereo not drawn) | 19.7% |
| COc1ccc(C(=O)NNC(=O)c2ccc(S(=O)(=O)N3CCCCC3)cc2)cc1 | 11% |
| Cc1cccc(-c2nsc(SCC(=O)Nc3ccc4c(c3)OCO4)n2)c1 | -19.4% |
| NC(=O)NC(CC(=O)NCCc1ccccn1)c1ccccc1Cl (stereo not drawn) | 9.58% |
| Cl.Cn1cccc1CNCC(O)c1ccccc1 (stereo not drawn) | -1.36% |
| Cc1cccc(NC(=O)CSc2nnc(Cn3nnc(-c4ccccc4)n3)n2-c2ccccc2)c1 | 1.59% |
| CC(C)CCNC(=O)CNC(=S)N(CCCN1CCOCC1)Cc1cccs1 | -0.616% |
| COc1cc(CCCN[C@H](CN)Cc2ccccc2)cc(OC)c1OC | 8.36% |
| COc1ccc(N(CC(=O)Nc2cccnc2)S(=O)(=O)c2ccccc2)cc1Cl | 4.2% |
| COc1cccc(CNCc2ccccc2Br)c1OC.O=C(O)C(=O)O | 11.2% |
| CCC(=O)N1CCc2cc(S(=O)(=O)N3CCN(c4ccccc4)CC3)ccc21 | 17.8% |
| Nc1c(S(=O)(=O)c2ccccc2)nnn1-c1ccccc1 | 0.451% |
| CCCNC(=O)C(NS(=O)(=O)c1cccc2nsnc12)c1ccccc1 (stereo not drawn) | 13.8% |
| CCOc1ccc(OCC)c(NC(=O)C2CCCN(c3nc(C)cc(C)n3)C2)c1 (stereo not drawn) | 2.53% |
| O=c1c2ccccc2nc(-c2ccccc2)n1-c1ccncc1 | -13% |
| Cc1cccc(C)c1NC(=O)CN(C)c1ccc(C(F)(F)F)cn1 | 4.55% |
| C=CCNC(NC(=O)c1ccccc1)(C(=O)OCC)C(F)(F)F (stereo not drawn) | 18.6% |
